In PubChem BioAssay AID504832 (National Center for Advancing Translational Sciences (NCATS), 2011):
Among all 310,000 compounds or so, about 18,000 (5.8%) were called active. The shares of active, inactive and inconclusive entries below differ from those in the screen. The call rests on the fitted dose curve; in most records, active means well fitted inhibition curve with a large enough effect; inconclusive means small, poorly fitted or top-dose-only effect, or another doubt; inactive means no such curve, though single readings can be large or run the other way. No potency is given beside an inconclusive call; the fits are too rough.

Assay: Primary qHTS for delayed death inhibitors of the malarial parasite plastid, 48 hour incubation
Settings: P. falciparum luciferase growth in erythrocytes; series mostly up to 28.7 µM; activity change, negative = inhibition: at the top concentration
Method in brief: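 Read-out is firefly luciferase luminescence from an integrated reporter in P. falciparum, so falling signal marks reduced parasite growth. Infected erythrocytes were at 2% hematocrit and 0.1% parasitemia (final) in Albumax-supplemented RPMI 1640.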
On the % scale 0 is the no-effect control and ±100 the full control effect; potency means the concentration at half of the fitted maximal effect; tags describe the fitted curve by direction and shape.

| Structure (SMILES) | Potency | activity change, negative = inhibition |
| --- | --- | --- |
| COc1ccc(OC)c(-c2c3cc(O)c(=O)cc-3oc3cc(O)c(O)cc23)c1 | active: 10.4 µM | – |
| Cc1ccc(-c2nc(CS(=O)(=O)CC(=O)NC3CCCCCC3)c(C)o2)cc1 | – | inactive: 9.89% |
| CCc1noc(C)c1C(=O)NNC(=O)c1nn(C)c(=O)c2ccccc12 | inconclusive [inhibitor, partial curve, poor fit] | – |
| CCCCC(NC(=O)c1ccc(C#N)cc1)C(=O)NCCC (centres undefined) | – | inactive: 20.7% |
| Cc1ccc(NC(=O)c2ccc(N3CCOCC3)c([N+](=O)[O-])c2)cc1S(=O)(=O)N1CCOCC1 | inconclusive [inhibitor, partial curve] | – |
| COc1ccc(OCCSc2nnc(-c3cccnc3)n2N)cc1 | – | inactive: 1% |
| Nc1nc(SCc2ccc(Cl)cc2Cl)ns1 | – | inactive: 36.3% |
| CCOc1cccc(CN2CCC(n3nccc3NC(=O)CCCc3ccccc3)CC2)c1 | active: 10.4 µM | – |
| Cc1sc2nc(CSCC(=O)Nc3ccc(C(F)(F)F)cc3)[nH]c(=O)c2c1C | inconclusive [inhibitor, single point] | – |
| O=C(COc1ccc([N+](=O)[O-])cc1)N(C1CCCCC1)C1CCS(=O)(=O)C1 (centres undefined) | inconclusive [inhibitor, partial curve, poor fit] | – |
| CCOC(=O)C1(Cc2ccccc2)CCCN(Cc2cccc(C(C)=O)c2)C1 (centres undefined) | inconclusive [inhibitor, partial curve] | – |
| O=C1/C(=N\S(=O)(=O)c2cccs2)C([n+]2cccc(Cc3ccccc3)c2)=C([O-])c2ccccc21 | active: 1.65 µM | – |
| O=C(CCCN1C(=O)/C(=C/c2ccccc2)SC1=S)NCCCn1ccnc1 | inconclusive [inhibitor, partial curve] | – |
| CC(C(=O)Nc1nc(-c2ccc(F)c(F)c2)cs1)N1C(=O)C2CC=CCC2C1=O (centres undefined) | inconclusive [inhibitor, single point] | – |
| NCCCC[C@@H](C(=O)N1CCNCC1)n1cc([C@@H](N)CO)nn1 | – | inactive: 55.4% |
| CC(C)(C)S(=O)(=O)c1cnc2c(S(=O)(=O)c3ccccc3)cnn2c1N | inconclusive [inhibitor, partial curve, poor fit] | – |
| O=C(O)c1cnn(-c2nc(-c3ccc(Cl)c(Cl)c3)cs2)c1C(F)(F)F | – | inactive: 1.36% |
| O=C1c2cccc3cccc(c23)C(=O)N1CCN1CCN(CC(O)COCc2ccc(Cl)cc2)CC1 (centres undefined) | inconclusive [inhibitor, single point] | – |
| COc1ccc(Br)cc1CNc1ccc(O)cc1 | inconclusive [inhibitor, single point] | – |
